From PMC4336329 (PLoS ONE, 2015) come the findings set out here.

Among all 310,000 compounds or so, about 14,000 (4.5%) showed an effect of 50% or more. The effect is printed as a negative number. Some of the results follow.
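Note: peak tail current of the secondary pulse compared with the same well before compound.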

human ether-à-go-go-related gene (hERG) potassium channel, sequence (Q12809 whole entry, looked up): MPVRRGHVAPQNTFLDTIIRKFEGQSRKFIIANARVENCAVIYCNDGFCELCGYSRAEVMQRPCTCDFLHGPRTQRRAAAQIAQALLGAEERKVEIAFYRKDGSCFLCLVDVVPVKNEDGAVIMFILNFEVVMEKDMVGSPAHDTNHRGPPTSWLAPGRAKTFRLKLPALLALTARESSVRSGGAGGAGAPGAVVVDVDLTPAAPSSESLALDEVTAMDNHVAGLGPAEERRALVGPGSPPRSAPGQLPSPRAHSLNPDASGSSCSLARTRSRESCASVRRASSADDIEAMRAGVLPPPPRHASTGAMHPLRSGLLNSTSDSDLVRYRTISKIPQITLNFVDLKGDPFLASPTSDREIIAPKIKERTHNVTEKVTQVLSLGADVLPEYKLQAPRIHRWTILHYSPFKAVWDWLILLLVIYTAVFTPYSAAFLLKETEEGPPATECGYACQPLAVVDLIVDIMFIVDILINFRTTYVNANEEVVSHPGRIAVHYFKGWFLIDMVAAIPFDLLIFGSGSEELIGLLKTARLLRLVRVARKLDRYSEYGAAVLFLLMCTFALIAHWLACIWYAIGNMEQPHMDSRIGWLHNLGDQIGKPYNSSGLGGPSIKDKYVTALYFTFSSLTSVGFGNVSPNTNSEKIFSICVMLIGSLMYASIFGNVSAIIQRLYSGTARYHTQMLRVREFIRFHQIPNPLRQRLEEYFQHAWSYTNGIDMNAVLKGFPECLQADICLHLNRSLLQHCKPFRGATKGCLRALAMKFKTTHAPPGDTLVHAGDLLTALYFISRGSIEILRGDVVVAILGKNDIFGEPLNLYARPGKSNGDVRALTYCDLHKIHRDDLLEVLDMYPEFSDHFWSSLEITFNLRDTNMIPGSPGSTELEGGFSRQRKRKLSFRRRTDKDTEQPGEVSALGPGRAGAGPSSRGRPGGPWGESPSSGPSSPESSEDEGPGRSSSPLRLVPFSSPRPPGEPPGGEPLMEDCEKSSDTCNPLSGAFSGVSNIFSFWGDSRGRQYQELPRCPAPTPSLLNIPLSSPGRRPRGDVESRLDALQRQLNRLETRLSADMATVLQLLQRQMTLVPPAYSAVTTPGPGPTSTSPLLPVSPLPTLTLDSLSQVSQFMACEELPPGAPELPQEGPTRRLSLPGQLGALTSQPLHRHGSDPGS

The test concerns the target human ether-à-go-go-related gene (hERG) potassium channel (human, UniProt Q12809). As to the kind of experiment: primary screen, population patch clamp on CHO cells stably expressing hERG.
Turning to `CCOc1cc(C(=O)NC2CC(C)(C)NC(C)(C)C2)cc(OCC)c1OCC`, the “hERG current change (%, negative = inhibition) at 10uM” value was 20%.
For the compound `C/C(Nc1ccc(Cl)cc1)=C(/C#N)C(N)=O`, the “hERG current change (%, negative = inhibition) at 10uM” value stood at 17%.
The same measure for `COc1ccccc1OCc1ccc(C(=O)Nc2ccccc2F)cc1`: -0.597%.
Under `Cc1cccc2cc(CN(Cc3nnnn3C3CCCC3)C3CCCCC3)c(=O)[nH]c12` stands -19.7%; under `O=C(O)c1cccc(NS(=O)(=O)c2cccc3nsnc23)c1`, 9.41%.
Consider `NC(=O)C1CCN(C(=O)CCSc2ccc(Cl)cc2)CC1`, for which the “hERG current change (%, negative = inhibition) at 10uM” value is given as -0.503%.
For `O=[N+]([O-])c1ccccc1/C=C/CN1CCC(O)CC1`, the “hERG current change (%, negative = inhibition) at 10uM” value came out at 18.6%.
The same measure for `COc1ccc(NC(=O)CC2C(=O)N(c3ccc(OC)cc3)C(=O)N2C(C)C)cc1` (centres unmarked): -5.34%; for `COc1cccc(C(c2c(NC(=O)c3ccco3)sc(C)c2C)N2CCOCC2)c1` (centres unmarked): -5.67%; for `CN(C)S(=O)(=O)N(CCN1CCOCC1)Cc1ccccc1F`: 11.4%.
As for `COc1ccc(N2CCN(Cc3nc4ccsc4c(=O)[nH]3)CC2)cc1`, the “hERG current change (%, negative = inhibition) at 10uM” value is on record as 2.6%.
On to `Cc1cccc(C(=O)NC2CCN(S(=O)(=O)c3ccc(F)cc3)CC2)c1`, for which the “hERG current change (%, negative = inhibition) at 10uM” value was 22.3%.
On to `CC(NC(=O)c1ccccc1)c1nnc(SCC(=O)NC2=NCCS2)n1C` (centres unmarked), for which the “hERG current change (%, negative = inhibition) at 10uM” value is reported as 16.6%.
For `COc1cccc(OC)c1C(=O)Nc1ccc2c(c1)Cc1ccccc1-2`, the “hERG current change (%, negative = inhibition) at 10uM” value stood at 15.5%.
Under `CC(C)On1c(SC(C)C)nc2ccccc2c1=O` stands -5.41%.
Under `COC(CNC(=O)c1ccc2c(c1)ncn2-c1ccc(F)cc1F)OC` stands 11.5%.
For the compound `O=C(Nc1ccccc1Cl)c1cc[n+]([O-])cc1`, the “hERG current change (%, negative = inhibition) at 10uM” value is listed as 27.8%.
`C=CCNCCCCOc1cccc(Br)c1.O=C(O)C(=O)O`: the “hERG current change (%, negative = inhibition) at 10uM” value is listed as -11.1%.
The same measure for `CCOC(=O)c1c(C2CC2)csc1NC(C)=O`: -27%.
Under `CC(OC(=O)c1cccs1)C(=O)NCc1cccs1` (centres unmarked) stands -0.718%.
Under `CNC(=O)c1c(NC(=O)c2ccc(S(=O)(=O)N3CCCC3)cc2)sc2c1CCN(C(C)C)C2` stands 2.7%.
As to `O=C(c1ccc(CS(=O)(=O)c2ccccc2)o1)N1CCOCC1`, the “hERG current change (%, negative = inhibition) at 10uM” value is reported as -0.653%.
Turning to `CC(C)c1cc(CN2CCOCC2)cc(C(C)C)c1O`, the “hERG current change (%, negative = inhibition) at 10uM” value came out at 1.13%.
Under `CCN(C(=O)COC(=O)c1cc2c(s1)CCCCC2)C1CCS(=O)(=O)C1` (centres unmarked) stands 12.1%; under `Cc1cc(C)c(OCC(=O)N(Cc2ccccc2)C2CCS(=O)(=O)C2)c(C)c1` (centres unmarked), -36%.
In the case of `Cl.c1ccc2c(c1)OCC(C1=NCCN1)O2` (centres unmarked), the “hERG current change (%, negative = inhibition) at 10uM” value was 6.67%.
As for `CC(=O)NC(CC(=O)Nc1nc(-c2ccccc2)c(C(C)=O)s1)c1ccccc1` (centres unmarked), the “hERG current change (%, negative = inhibition) at 10uM” value was -44.4%.
Regarding `CCOc1ccc(/C=C2\SC(=S)N(CCC(=O)Nc3ccc(C(=O)O)cc3)C2=O)cc1`, the “hERG current change (%, negative = inhibition) at 10uM” value was determined as 23.6%.
The same measure for `COc1ccc(S(=O)(=O)N2CCN(C(=O)C3CCC3)CC2)cc1`: -4.42%.
Consider `C=CCn1c(SCC(=O)NCc2ccc3c(c2)OCO3)nnc1C1CCCCC1`, for which the “hERG current change (%, negative = inhibition) at 10uM” value was -19.8%.
For `Cc1cc(NC(=O)COC(=O)CSc2nc3cc(Cl)ccc3n2Cc2ccccc2)no1`, the “hERG current change (%, negative = inhibition) at 10uM” value is reported as -19.9%.
Under `N=C1/C(=C\c2ccc(OC(=O)c3ccccc3)cc2)C(=O)N=C2SC(N3CCOCC3)=NN12` stands 9.65%; under `CCC(C)N1CCN(C(=O)c2cc(OC)cc(OC)c2)CC1.O=C(O)C(=O)O` (centres unmarked), 16.6%.
Under `COc1ccc(/C=C(\NC(=O)c2ccc(C)cc2)C(=O)NCCCn2ccnc2)cc1` stands -86.4%; under `CCOc1cccc2sc(N(CCCN(C)C)C(=O)c3ccc(C(=O)c4ccccc4)cc3)nc12.Cl`, -72.1%.
`COc1ccc(/C=C2\SC(=S)N(CC(=O)Nc3nnc(C)s3)C2=O)cc1`: the “hERG current change (%, negative = inhibition) at 10uM” value was found to be 6.86%.
The same measure for `Cc1cc(C)n2nc(CCCO)nc2n1`: 49.3%.
The same measure for `Cn1c(=O)oc2cc(S(=O)(=O)CCC(=O)NCCc3ccccc3)ccc21`: 7.46%; for `O=C(O)c1cc(Cl)c(Cl)cc1C(=O)Nc1cccc2ncccc12`: -8.12%; for `CCOc1ccc(CCNc2nc3c(c(=O)n(C)c(=O)n3C)n2CC)cc1OCC`: 3.1%.
As for `O=C(CCS(=O)(=O)c1cccc2nsnc12)NC1CCCCC1`, the “hERG current change (%, negative = inhibition) at 10uM” value is recorded as 13.4%.
For `CCOC(=O)C1(CC2CC2)CCN(Cc2cnc(-c3ccccc3C)nc2)CC1`, the “hERG current change (%, negative = inhibition) at 10uM” value is given as -10.4%.
The same measure for `CCOC(=O)C(O)(c1ccc(NC(=S)NC(=O)c2ccc(Cl)cc2Cl)cc1)C(F)(F)F` (centres unmarked): 10.1%; for `C/C(=N\NC(=O)CC#N)c1cc2ccccc2oc1=O`: 5.92%; for `CCN(CC)S(=O)(=O)c1cccc(-c2nnc(SCC(=O)N3CCC(C(=O)O)CC3)n2N)c1`: -4.23%.
Regarding `COc1ccc(/C=N/Nc2nc(-c3ccc(C)cc3)c(NC(C)=O)s2)cc1`, the “hERG current change (%, negative = inhibition) at 10uM” value is given as 5.16%.
Take `Cn1ccc(C(=O)N2CCCc3ccccc32)n1`: the “hERG current change (%, negative = inhibition) at 10uM” value worked out at 14.9%.
Turning to `C(=N\N(c1ccccc1)c1ccccc1)/c1ccc(N2CCOCC2)s1`, the “hERG current change (%, negative = inhibition) at 10uM” value was -1.1%.
In the case of `CCN(CC(=O)NC(=O)NCc1ccco1)Cc1ccccc1`, the “hERG current change (%, negative = inhibition) at 10uM” value is listed as -12.4%.
As for `CNC(=O)[C@@H]1C[C@H]1[C@@H](NC(=O)OCc1ccccc1)c1ccccc1`, the “hERG current change (%, negative = inhibition) at 10uM” value was -48.3%.
The same measure for `CSc1ccccc1NC(=O)Nc1cccc(Cl)c1`: -1.05%; for `COc1ccc(NC(=O)CN(C)S(=O)(=O)c2ccc(Cl)cc2)cn1`: -1.35%.
For the compound `Oc1cc(OCc2ccccc2)ccc1-c1[nH]ncc1-c1ccccc1`, the “hERG current change (%, negative = inhibition) at 10uM” value was found to be 20.4%.
As to `O=C(c1c[nH]c2ccc(S(=O)(=O)N3CCOCC3)cc2c1=O)N1CCCC1`, the “hERG current change (%, negative = inhibition) at 10uM” value is -6.08%.
Consider `O=C(NCc1ccco1)C(=O)NCC1OCCN1S(=O)(=O)c1cc(F)ccc1F` (centres unmarked), for which the “hERG current change (%, negative = inhibition) at 10uM” value is listed as -2.42%.
Consider `CC(=O)NC(CC(=O)N(Cc1ccccc1)c1ccc(C)cc1)c1ccccc1` (centres unmarked), for which the “hERG current change (%, negative = inhibition) at 10uM” value is listed as -3.88%.
The same measure for `CC1(C)CC(=O)C(C#N)=C(NCCCO)C1`: 7.86%; for `O=C(Oc1ccc(N2C(=O)CCC2=O)cc1)c1ccccc1`: 10.1%; for `O=[N+]([O-])c1ccccc1/C=N/N1CCN(c2ccccn2)CC1`: 6.12%.
Under `O=C(c1ccc(-c2cccc(C(F)(F)F)c2)o1)N1CCCC(C(F)(F)F)C1` (centres unmarked) stands -14.4%.
The same measure for `COc1ccc(C(=O)OCC(=O)NCC2CCCO2)c(F)c1` (centres unmarked): 19.4%; for `Cc1csc(NC(=O)C(F)(F)F)n1`: 15.6%; for `OCCN(CCO)c1ccc2ccccc2c1`: 12.4%.
Turning to `CCOCC(=O)Nc1cc(Cl)ccc1C`, the “hERG current change (%, negative = inhibition) at 10uM” value is reported as 14.5%.
Under `COc1ccc(C(=O)C2CCCN(Cc3cccn3-c3cccnc3)C2)cc1OC` (centres unmarked) stands -62.9%; under `Cc1cc(C)n(CCN(C)C(=O)C2CCC(=O)N(CCc3cccc(F)c3)C2)n1` (centres unmarked), 3.51%.
For `CCc1ccc(C(=O)NNc2ccc(Cl)cc2)cc1`, the “hERG current change (%, negative = inhibition) at 10uM” value is recorded as -4.07%.
Under `CN(C)c1ccc(NC(=O)CCn2c(=S)oc3ccccc32)cc1` stands 18.1%; under `Cn1c(=O)n(C)c2cc(NS(=O)(=O)c3ccc(F)cc3)ccc21`, 1.38%.
With `CC1CCC2(CC1)NC(=O)N(CC(=O)N1CCN(C(=O)c3cccs3)CC1)C2=O` (centres unmarked), the “hERG current change (%, negative = inhibition) at 10uM” value is -9.44%.
Under `CC1CN(/C(=N\S(=O)(=O)c2ccccc2)c2ccccc2)CC(C)O1` (centres unmarked) stands -8.3%; under `Cc1nn(-c2nc3ccccc3[nH]2)c(=O)c2ccccc12`, 7.4%; under `CN(Cc1ccccc1)Cc1nc2scc(-c3ccccc3)c2c(=O)[nH]1`, 10.7%.
For the compound `COc1cc([N+](=O)[O-])ccc1NC(=O)CCCOc1cc(C)ccc1C`, the “hERG current change (%, negative = inhibition) at 10uM” value was -3.08%.
The same measure for `O=C(NCC(O)c1ccccc1)c1cccc(S(=O)(=O)N2CCOCC2)c1` (centres unmarked): -18.1%; for `Cc1nn(-c2ccccc2)c2c1c(C)c(CCC(=O)NCC1CCCO1)c(=O)n2C` (centres unmarked): 15.9%.
As for `COc1cc(C(=O)NCCCNc2nc3cc(C)c(C)cc3cc2C#N)cc(OC)c1OC`, the “hERG current change (%, negative = inhibition) at 10uM” value was determined as 43.3%.
Under `CNC(=O)OCc1n(C)cc[n+]1C.[I-]` stands 6.69%; under `CCn1c(SCC(=O)c2ccc(C)cc2)nnc1-c1ccoc1C`, -9.05%; under `O=C(Cc1ccc(Cl)cc1)Nc1cccc(C(=O)Nc2ccccc2C(=O)O)c1`, 28.9%.
The same measure for `CCc1nc(SCC(=O)NNC(=O)c2ccc(OC)cc2)c2ccccc2n1`: -2.28%.
The same measure for `CCN(Cc1cc(=O)n2ccsc2n1)Cc1nc2cc(OC)c(OC)cc2c(=O)[nH]1`: 7.49%; for `COC(=O)c1ccccc1NC(=O)Cn1c(CCC(=O)O)ccc1-c1cccs1`: 8.8%.
As to `CCOC(=O)c1c(-c2ccccc2)nnn1-c1nc(OC)nc(N2CCOCC2)n1`, the “hERG current change (%, negative = inhibition) at 10uM” value was -12%.
The same measure for `CCN1/C(=C/C=C/c2oc3ccc(-c4ccccc4)cc3[n+]2CC)Oc2ccc(-c3ccccc3)cc21.CCOS(=O)(=O)[O-]`: -2.14%; for `Cc1nnc(OC(C)C)c2nn(-c3ccccc3F)c(C)c12`: 9.58%.
Under `COc1ccc(-n2ncc3c(NCCCN4CCOCC4)ncnc32)cc1` stands -11.5%; under `N[C@H]1CONC1=O`, 14.2%.
Turning to `CCOC(=O)c1c(NC(=O)C(F)(OC)C(F)(F)F)sc(C(=O)N2CCCCC2)c1C` (centres unmarked), the “hERG current change (%, negative = inhibition) at 10uM” value is on record as -42.5%.
